Measured values as given in the RNAGym collection of RNA variant scans (doi:10.1093/nar/gkz1192).
Read counts are not given, so values of variants with three or more changes are uncertain.

B1: CPEB3 Ribozyme (parent)
chain: UAACAGGGGGCCACAGCAGAAGCGUUCACGUCGCAGCCCCUGUCAGAUUCUGGUGAAUCUGCGAAUUCUGCUGUAUAUCUC

Variants of: B1
Experiment: self-cleavage, relative activity (ratio to wild type); higher = more cleavage; in vitro, sequencing
In short: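 Relative activity compares each variant's cleaved/total read fraction with that of the unmutated ribozyme. To get these fractions, barcoded CPEB3 ribozyme libraries from rounds of error-prone PCR were transcribed with T7 RNA polymerase for 5 hours at 37°C and then given 15 min of DNase I treatment before EDTA was added. The RNAs were reverse transcribed with template switching and sequenced on Illumina, and DNA sequencing linked barcodes to variants. A minimum of 5 reads applied, and three batches were averaged.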

| Variant | self-cleavage |
| --- | --- |
| A13U A20U A28G A35G U76C A77U | 0.24 |
| A13U A20U A35G U76C U80C | 1.1 |
| A13U A20U A35U A64G A65G U69C | 0.05 |
| A13U A20U A47G U76C | 0.27 |
| A13U A20U U26A U31C U41C U54G | 0.07 |
| A13U A20U U43A U80A | 0.95 |
| A13U A20U U78A | 0.33 |
| A13U A21G A28G U31C A56U U69A A75U | 0.08 |
| A13U A21G A35U C50A | 0 |
| A13U A21G A45G A56G | 0.21 |
| A13U A21G A45G U60C C62U | 0.51 |
| A13U A21G A47G U76A | 0.5 |
| A13U A21G A65G U67G U72C | 0.14 |
| A13U A21G C23A U72C | 0.1 |
| A13U A21G U25A U72A | 0.07 |
| A13U A21G U51A U58C A77G | 0.06 |
| A13U A21G U60C U74C | 0.18 |
| A13U A21G U67A A77G | 0.09 |
| A13U A21G U72C | 0.07 |
| A13U A21U A28G A45G U66C U78C | 0.06 |
| A13U A21U U31A C34U U67C | 0.04 |

| Variant | self-cleavage |
| --- | --- |
| A13U A21U U58A U60A | 0.14 |
| A13U A28C U78C | 0.77 |
| A13U A28G A35U A56U C62U U72C U78C | 0.09 |
| A13U A28G A57G | 0.61 |
| A13U A28G C39U A45G | 0.26 |
| A13U A28G U31C U72A | 0.09 |
| A13U A28G U41C C59G U78A | 0.12 |
| A13U A28G U48C G53U | 0.3 |
| A13U A28G U80A | 0.99 |
| A13U A28U A56G U72G | 0.24 |
| A13U A28U A64G | 0.92 |
| A13U A28U U41C U66A U76A | 0.37 |
| A13U A28U U69C U74C | 0.38 |
| A13U A35C A45G U60C | 0.77 |
| A13U A35G A56C U78C | 1.13 |
| A13U A35G C37A U41C U54C U74A | 0.9 |
| A13U A35G U66C | 1.34 |
| A13U A35G U69C | 1.19 |
| A13U A35U C44G A56G U80C | 0.14 |
| A13U A35U U41A A57G | 0.16 |
| A13U A35U U51A U60C | 0.22 |

| Variant | self-cleavage |
| --- | --- |
| A13U A35U U60A U80C | 0.11 |
| A13U A35U U60C U78A | 0.17 |
| A13U A45G A64G U66C A75G | 0.24 |
| A13U A45G U49C U66C U74A | 0.15 |
| A13U A45G U67A | 0.13 |
| A13U A45G U76C | 1.02 |
| A13U A45G U78C | 1.06 |
| A13U A45U A57G | 0.38 |
| A13U A45U G61A U66C | 0.15 |
| A13U A47G G53A | 1.38 |
| A13U A47G U78A | 1.36 |
| A13U A56G A57G U74A | 0.56 |
| A13U A56G A77G | 0.82 |
| A13U A56G U60C U76C | 0.38 |
| A13U A56G U67C | 0.25 |
| A13U A64G U76A | 1.19 |
| A13U A64U U69A | 0.39 |
| A13U A65G U67A | 0.37 |
| A13U C14A A15G A57G | 0.73 |
| A13U C14A C23G U41C C68A | 0.05 |
| A13U C14U U69C U74A U78C | 0.31 |

| Variant | self-cleavage |
| --- | --- |
| A13U C17G U25C A47G U49A U78C | 0.14 |
| A13U C17U A21G A35U A56G U67C A77G | 0.05 |
| A13U C17U A21G C39A U54A | 0.07 |
| A13U C23A U41A C44U | 0.06 |
| A13U C23U A35G U43A | 1.21 |
| A13U C23U U25C | 0.33 |
| A13U C27A C34G C40U U60A U78C | 0.13 |
| A13U C27U A28G A35U A45C U54A | 0.05 |
| A13U C27U A45G A56G | 0.06 |
| A13U C27U A45G U80C | 0.09 |
| A13U C27U U41C | 0.07 |
| A13U C29G A47G U49C G63A U74G | 0.12 |
| A13U C29U C38A A45U A56U U78A | 0.03 |
| A13U C29U U41G | 0.17 |
| A13U C29U U48C A65G | 0.07 |
| A13U C32U A47G A64U A65G U80C | 0.08 |
| A13U C34G U41C | 0.12 |
| A13U C40U U78A | 0.69 |
| A13U C50U C79U | 1.2 |
| A13U C59G C62A A65G U80C | 0.1 |
